{"sequences": {"note": "Amino acid sequences for entries named in this document (tags omitted).", "UniProt Q9H1Y0": "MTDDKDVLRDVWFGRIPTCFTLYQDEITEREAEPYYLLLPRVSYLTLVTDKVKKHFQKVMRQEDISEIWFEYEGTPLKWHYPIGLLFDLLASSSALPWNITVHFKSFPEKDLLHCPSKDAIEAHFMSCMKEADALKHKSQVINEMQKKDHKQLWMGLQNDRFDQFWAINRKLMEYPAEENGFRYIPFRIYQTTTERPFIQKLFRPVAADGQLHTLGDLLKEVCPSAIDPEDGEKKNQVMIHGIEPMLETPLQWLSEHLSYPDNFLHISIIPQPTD"}, "source": "paper PMC3170314", "molecules": {"B1": {"name": "2HA tagged BNIP1 (protein, UniProt Q12981 1-228)", "chain": "MAAPQDVHVRICNQEIVKFDLEVKALIQDIRDCSGPLSALTELNTKVKEKFQQLRHRIQDLEQLAKEQDKESEKQLLLQEVENHKKQMLSNQASWRKANLTCKIAIDNLEKAELLQGGDLLRQRKTTKESLAQTSSTITESLMGISRMMAQQVQQSEEAMQSLVTSSRTILDANEEFKSMSGTIQLGRKLITKYNRRELTDKLLIFLALALFLATVLYIVKKRLFPFL"}, "B2": {"name": "2HA tagged RNF185 (enzyme, UniProt Q96GF1-1 1-192)", "chain": "MASKGPSASASPENSSAGGPSGSSNGAGESGGQDSTFECNICLDTAKDAVISLCGHLFCWPCLHQWLETRPNRQVCPVCKAGISRDKVIPLYGRGSTGQQDPREKTPPRPQGQRPEPENRGGFQGFGFGDGGFQMSFGIGAFPFGIFATAFNINDGRPPPAVPGTPQYVDEQFLSRLFLFVALVIMFWLLIA"}, "B3": {"name": "endogenous BNIP1 (protein, UniProt Q12981 1-228)", "chain": "MAAPQDVHVRICNQEIVKFDLEVKALIQDIRDCSGPLSALTELNTKVKEKFQQLRHRIQDLEQLAKEQDKESEKQLLLQEVENHKKQMLSNQASWRKANLTCKIAIDNLEKAELLQGGDLLRQRKTTKESLAQTSSTITESLMGISRMMAQQVQQSEEAMQSLVTSSRTILDANEEFKSMSGTIQLGRKLITKYNRRELTDKLLIFLALALFLATVLYIVKKRLFPFL"}, "B4": {"name": "2HA tagged Bcl-w (protein, UniProt Q92843 1-193)", "chain": "MATPASAPDTRALVADFVGYKLRQKGYVCGAGPGEGPAADPLHQAMRAAGDEFETRFRRTFSDLAAQLHVTPGSAQQRFTQVSDELFQGGPNWGRLVAFFVFGAALCAESVNKEMEPLVGQVQEWMVAYLETQLADWIHSSGGWAEFTALYGDGALEEARRLREGNWASVRTVLTGAVALGALVTVGAFFASK"}}, "key": {"[1]": {"target": "T1, 3Flag tagged BNIP1 (human) (UniProt Q12981)", "T1 sequence": "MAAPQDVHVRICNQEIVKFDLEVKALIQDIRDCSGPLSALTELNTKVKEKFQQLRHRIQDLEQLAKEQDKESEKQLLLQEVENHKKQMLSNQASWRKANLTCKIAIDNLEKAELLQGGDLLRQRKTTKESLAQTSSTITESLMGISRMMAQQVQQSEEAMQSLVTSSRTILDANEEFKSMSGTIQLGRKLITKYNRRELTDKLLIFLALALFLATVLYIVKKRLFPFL", "experiment": "co-IP; 293T cells co-transfected with 3Flag-BNIP1 and with Myc-Ub and RNF185-2HA or empty vectors; IP of BNIP1 and blot for endogenous p62"}, "[2]": {"target": "T2, 3Flag tagged RNF185 (human) (UniProt Q96GF1)", "T2 sequence": "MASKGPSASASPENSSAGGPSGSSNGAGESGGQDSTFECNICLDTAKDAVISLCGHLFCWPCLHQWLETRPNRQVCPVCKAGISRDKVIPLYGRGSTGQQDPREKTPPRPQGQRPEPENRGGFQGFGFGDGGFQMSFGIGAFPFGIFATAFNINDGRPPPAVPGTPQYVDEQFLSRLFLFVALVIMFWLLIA", "experiment": "co-IP; 293T cells co-transfected with a 3Flag tagged and a 2HA tagged construct; 24 h later lysates (50 mM Tris-HCl pH 7.5, 150 mM NaCl, 1 mM EDTA, 1% Triton X-100, 10% glycerol) precipitated with anti-Flag conjugated beads and blotted with anti-Flag and anti-HA"}, "[3]": {"target": "3Flag tagged ATG5 (UniProt Q9H1Y0)", "experiment": "co-IP; 293T cells co-transfected with a 3Flag tagged and a 2HA tagged construct; 24 h later lysates (50 mM Tris-HCl pH 7.5, 150 mM NaCl, 1 mM EDTA, 1% Triton X-100, 10% glycerol) precipitated with anti-Flag conjugated beads and blotted with anti-Flag and anti-HA"}, "[4]": {"target": "T1, 3Flag tagged BNIP1 (human)", "experiment": "co-IP; 293T cells co-transfected with a 3Flag tagged and a 2HA tagged construct; 24 h later lysates (50 mM Tris-HCl pH 7.5, 150 mM NaCl, 1 mM EDTA, 1% Triton X-100, 10% glycerol) precipitated with anti-Flag conjugated beads and blotted with anti-Flag and anti-HA"}, "[5]": {"target": "T2, 3Flag tagged RNF185 (human)", "experiment": "co-IP; 293T cells transfected with 3Flag tagged RNF185 or empty vector; lysates precipitated as in Fig. 5A and blotted for endogenous BNIP1"}}, "note": "These are yes or no findings as the source states them, for the method shown. In cells and extracts the contact can be indirect. Some entries that bind do so weakly or less than the wild type. Where a sequence is shown, tags or fusion partners need not be part of it."}
{"molecule": "endogenous p62 (from UniProt Q13501 1-440)", "values": [{"measurement": "binding", "setting": "[1]", "value": "binds"}]}
{"molecule": "B1", "values": [{"measurement": "binding", "setting": "[2]", "value": "binds"}]}
{"molecule": "B2", "values": [{"measurement": "binding", "setting": "[3]", "value": "binds"}, {"measurement": "binding", "setting": "[4]", "value": "binds"}]}
{"molecule": "B3", "values": [{"measurement": "binding", "setting": "[5]", "value": "binds"}]}
{"molecule": "B4", "values": [{"measurement": "binding", "setting": "[2]", "value": "no binding"}]}
